Source: PubChem BioAssay AID1634 (National Center for Advancing Translational Sciences (NCATS), 2009)
Screen size: about 260,000 compounds; about 150 (0.058%) were called active. Inconclusive results, whose numbers are uncertain, are shown with a selection of clear calls. The call rests on the fitted dose curve; in most records, active means well fitted inhibition curve with a large enough effect; inconclusive means small, poorly fitted or top-dose-only effect; inactive means no such curve, though single readings can be large or run the other way. No potency is given beside an inconclusive call; the fits are too rough.
Further: nearly all actives have a fitted effect of over 60% in size.
Potency means the concentration at half of the fitted maximal effect; tags describe the fitted curve by direction and shape.

Each compound was assayed against Pyruvate kinase PKM (Homo sapiens) (UniProt P14618) (assay: qHTS Assay for Inhibitors of Human Muscle isoform 2 Pyruvate Kinase). Conditions: purified PKM2, ATP generation, Kinase-Glo luminescence; series mostly up to 57.5 µM.
Sequence of UniProt P14618 (P14618 whole entry, looked up, canonical isoform): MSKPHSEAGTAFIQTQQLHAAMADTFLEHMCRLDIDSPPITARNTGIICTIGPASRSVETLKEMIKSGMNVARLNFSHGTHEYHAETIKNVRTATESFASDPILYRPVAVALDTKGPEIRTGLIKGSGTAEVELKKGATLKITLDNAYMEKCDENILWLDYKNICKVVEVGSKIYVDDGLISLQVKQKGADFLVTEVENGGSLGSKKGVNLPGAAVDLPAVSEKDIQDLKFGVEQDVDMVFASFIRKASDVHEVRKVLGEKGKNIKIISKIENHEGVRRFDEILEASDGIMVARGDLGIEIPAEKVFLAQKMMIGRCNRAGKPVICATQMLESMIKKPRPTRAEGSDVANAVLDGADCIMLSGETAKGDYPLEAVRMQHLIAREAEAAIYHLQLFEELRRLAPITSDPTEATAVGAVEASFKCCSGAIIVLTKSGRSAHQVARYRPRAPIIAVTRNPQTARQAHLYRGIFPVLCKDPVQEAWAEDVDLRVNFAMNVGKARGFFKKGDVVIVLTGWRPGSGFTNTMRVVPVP
Outline: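 Enzyme run at intermediate activity with final 0.1 mM ADP, 0.5 mM PEP (50 mM imidazole pH7.2, 50 mM KCl, 7 mM MgCl2), incubated 1 h at r.t. ATP formed read by Kinase-Glo luminescence, normalized to no-enzyme (full inhibition) and uninhibited wells.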
With `CN(CCOC(=O)/C=C/c1ccco1)Cc1ccccc1` the Potency was “inactive”.
With `Cc1ccc(C(=O)N2CCN(C(=O)c3ccc(C)cc3)C2)cc1` the Potency was “inactive”.
`O=C1C=CC(=O)N1c1cccc(-c2ccccc2)c1` was tested, and the Potency was “inactive”.
For `CC(C)(C)OC(=O)NCCCCCc1nnc(SCC(=O)Nc2cccc(Cl)c2)o1`, the Potency was “inactive”.
For `O=C(Nc1cccc(S(=O)(=O)N2CCOCC2)c1)c1cnccn1`, the Potency was “inactive”.
With `CCCC(C)NC(=O)COC(=O)c1cc(Br)c(Br)s1` (stereo not drawn) the Potency was inconclusive [falling, single point].
`COc1ccccc1C(=O)Nc1ccc(NC(=O)c2ccco2)c(C)c1` was tested, and the Potency was inconclusive [falling, partial curve].
For `Cc1cc(C)c(S(=O)(=O)Nc2cccc(S(=O)(=O)NC3=NCCC3)c2)c(C)c1`, the Potency was inconclusive [falling, single point].
`O=C(O)c1ccc(N/N=C/c2ccc3nccnc3c2)cc1` was tested, and the Potency was inconclusive [falling, single point].
With `Cn1c(N=Nc2ccc(N3CCOCC3)cc2)[n+](C)c2ccccc21` the Potency was inconclusive [falling, single point].
In the case of `Cc1ccccc1NC(=O)C1C2C=CC(C3CC23)C1C(=O)O` (stereo not drawn), the Potency is reported as inconclusive [falling, full curve].
For `Cc1ccsc1/C=C1/C(=O)NN(c2ccccc2)C1=O`, the Potency was inconclusive [falling, partial curve].
In the case of `COc1cccc(/C=N/NC(=O)c2ccoc2C)c1`, the Potency is reported as inconclusive [falling, single point].
For `O=C(Oc1ccc(-c2nc(-c3ccccn3)no2)cc1)c1ccccc1`, the Potency was active: 14.1 µM.
With `CCOc1ccc2nc(NC(=O)c3ccccn3)sc2c1` the Potency was inconclusive [falling, partial curve].
With `CCCC(=O)Nc1ccc(C2C(=O)c3ccccc3C2=O)cc1` the Potency was inconclusive [falling, partial curve].
`S=C(c1ccc(-c2ccc(Cl)cc2Cl)o1)N1CCCC1` was tested, and the Potency was “inactive”.
`Nc1cc(C(=O)O)c(N)c2c1C(=O)c1ccccc1C2=O` was tested, and the Potency was inconclusive [falling, single point].
With `CCn1c(=S)sc2c(=O)n(-c3ccccc3)c(SCC(=O)NCc3ccco3)nc21` the Potency was inconclusive [falling, single point].
`Cc1ccc(C(=O)NN2CC(O)=C(c3nc(-c4cccc([N+](=O)[O-])c4)cs3)C2=N)cc1` was tested, and the Potency was inconclusive [falling, single point].
With `Cn1c(SCC(=O)N/N=C/c2ccc(O)c(O)c2)nc2ccccc21` the Potency was “inactive”.
In the case of `CCOC(=O)Cc1c[nH]c2ccccc12`, the Potency is reported as inconclusive [falling, single point].
With `CCCCN(C)C(=O)c1cc2cc3ccc(OC)cc3nc2s1` the Potency was inconclusive [falling, single point].
In the case of `O=C(Nc1ccccc1C(=O)N/N=C/c1ccncc1)c1ccccc1`, the Potency is reported as active: 14.1 µM.
In the case of `CC(N)(C(=O)O)c1cccc(OCc2cccc(Cl)c2)c1` (stereo not drawn), the Potency is reported as “inactive”.
In the case of `O=C(N/N=C/c1cccs1)c1n[nH]c2c1CCC2`, the Potency is reported as inconclusive [falling, single point].
For `O=C(CN1CCOCC1)NNC(=S)Nc1ccc(Cl)cc1`, the Potency was inconclusive [falling, single point].
In the case of `CC[n+]1cccc(-c2nc3ccccc3s2)c1`, the Potency is reported as inconclusive [falling, partial curve].
For `O=C(NC1=NCCS1)C1COc2ccccc2O1` (stereo not drawn), the Potency was inconclusive [falling, partial curve].
`COc1ccccc1CCNC(=O)c1nc(-c2cccs2)no1` was tested, and the Potency was inconclusive [falling, full curve].
For `CCOC(=O)N1CCN(CC(=O)N2CCC(C(N)=O)CC2)CC1`, the Potency was inconclusive [falling, single point].
`CCOC(=O)C(NC=O)(NC(C)(C)C)C(=O)OCC` was tested, and the Potency was “inactive”.
`Cc1cccn2c1nc(=S)n2C(=O)c1ccco1` was tested, and the Potency was inconclusive [falling, partial curve].
In the case of `NS(=O)(=O)c1cc(C(=O)OCC(=O)Nc2ccc(N3CCCCC3)cc2)ccc1Cl`, the Potency is reported as inconclusive [falling, single point].
`N#Cc1ccc(OCC(=O)NN2Cc3ccccc3C2=N)cc1` was tested, and the Potency was inconclusive [falling, single point].
For `CC(=O)Oc1ccc(C(=O)Nc2cccc(C(=O)c3cccc(NC(=O)c4ccc(OC(C)=O)cc4)c3)c2)cc1`, the Potency was “inactive”.
In the case of `CC1=NN(c2ccccc2)C(=O)/C1=C/C=C/c1ccc(N(C)C)cc1`, the Potency is reported as inconclusive [falling, single point].
For `CSc1ccc(/C=C/C(=O)c2c(O)cc(C)oc2=O)cc1`, the Potency was inconclusive [falling, partial curve].
For `COC(=O)N/N=C(\C)c1ccc(OC(F)F)cc1OC(F)F`, the Potency was inconclusive [falling, single point].
With `COC(=O)c1ccc(NC(=O)c2ccc(OC(C)=O)c(OC)c2)cc1` the Potency was inconclusive [falling, single point].
`O=C(CCc1ccc(O)c(O)c1)N/N=C/c1cc2c(cc1[N+](=O)[O-])OCO2` was tested, and the Potency was inconclusive [falling, partial curve].
For `CC(C)(C)c1csc(Sc2ccc([N+](=O)[O-])cn2)n1`, the Potency was “inactive”.
For `O=[N+]([O-])c1ccccc1Nc1ccc(O)cc1`, the Potency was “inactive”.
In the case of `O=C(COC(=O)Cc1n[nH]c(=O)c2ccccc12)Nc1cccc(C(F)(F)F)c1`, the Potency is reported as inconclusive [falling, single point].
With `Nc1cc2c(cc1O)CCCC2` the Potency was “inactive”.
For `COc1cc(/C=N\Nc2nc(-c3cccs3)c(NC(C)=O)s2)ccc1O`, the Potency was “inactive”.
`COc1cc(S(=O)(=O)Nc2ccc(C)cc2)ccc1N=Cc1c(C)[nH]n(-c2ccc(C)cc2)c1=O` was tested, and the Potency was inconclusive [falling, partial curve].
In the case of `COc1cc(OC)cc(C(=O)Nc2ccc3c(c2)OCCO3)c1`, the Potency is reported as inconclusive [falling, partial curve].
`O=C(/C=C/c1ccc(O)c(O)c1)O[C@H](Cc1ccc(O)c(O)c1)C(=O)O` was tested, and the Potency was “inactive”.
In the case of `N/C(=N\OC(=O)c1ccccc1Cl)c1ccccc1`, the Potency is reported as inconclusive [falling, partial curve].
For `COc1ccc(SC[C@H](Cc2ccccc2)N2CCN(CCc3ccccc3)CCC2=O)cc1`, the Potency was “inactive”.
In the case of `CC(C)CC(=O)N1CCN(S(=O)(=O)c2ccc3ccccc3c2)CC1`, the Potency is reported as “inactive”.
In the case of `O=C1CSC(=S)N1/N=C/c1cc(Br)ccc1O`, the Potency is reported as inconclusive [falling, single point].
`Cc1nc(/C=[N+](\[O-])C(C)(C)/C=N/O)n(O)c1C` was tested, and the Potency was inconclusive [falling, full curve, poor fit].
`COc1cc(O)oc1C=Nc1ccc(C(=O)O)cc1` was tested, and the Potency was inconclusive [falling, partial curve].
For `CN(C(=O)c1ccc(COc2ccccc2Br)o1)c1ccccc1`, the Potency was inconclusive [falling, single point].
With `COc1cccc(Nc2n[nH]c(=S)s2)c1` the Potency was inconclusive [falling, partial curve, poor fit].
For `Cc1ccc(C(=O)Nc2ccc3c(c2)OCCO3)o1`, the Potency was inconclusive [falling, partial curve].
In the case of `COc1ccc(-c2cc(-c3nnc(COC(=O)c4ccncc4)o3)c3ccccc3n2)cc1OC`, the Potency is reported as inconclusive [falling, single point].
With `O=C(OC1CCCCC1=O)c1cc(Cl)ccc1[N+](=O)[O-]` (stereo not drawn) the Potency was inconclusive [falling, single point].
For `COCC(=O)NC1CCN(S(=O)(=O)c2cccc(C(C)=O)c2)CC1`, the Potency was inconclusive [falling, single point].
For `O=c1nc(N/N=C/c2ccccn2)cn[nH]1`, the Potency was inconclusive [falling, single point].
For `N#CCSc1nc2[nH]ncc2c(=O)n1-c1ccccc1Br`, the Potency was inconclusive [falling, single point].
With `Cc1c(-c2ccccc2)n[nH]c1C(=O)N=Nc1c(O)[nH]c2ccccc12` the Potency was inconclusive [falling, single point].
With `Oc1[nH]c(=S)sc1C=C1N=c2ccccc2=N1` the Potency was inconclusive [falling, partial curve].
`c1ccc2[nH]c(SCc3cn4ccccc4n3)nc2c1` was tested, and the Potency was inconclusive [falling, single point].
For `Fc1ccc(-c2nnc(NC3=NCCCCC3)o2)cc1`, the Potency was inconclusive [falling, partial curve].
In the case of `CCN(CC)c1ccc(NC(=O)c2ccccc2Br)cc1S(=O)(=O)Nc1ccccc1OC`, the Potency is reported as inconclusive [falling, partial curve].
`O=C(Nc1ccc(C(=O)N2CCCC2)cc1)c1ccccc1F` was tested, and the Potency was inconclusive [falling, single point].
For `O=C(O)c1cccc(NC(=S)N/N=C/c2ccccc2OCc2ccc(Br)cc2)c1`, the Potency was inconclusive [falling, single point].
`CC(=O)OCC(=O)Nc1ccc(Br)c(C)c1` was tested, and the Potency was inconclusive [falling, single point].
`COc1ccccc1NC(=O)N1CCCC1` was tested, and the Potency was inconclusive [falling, single point].
With `COc1ccc2c(CC(=O)NCCN3C(=O)S/C(=C\c4cccnc4)C3=O)coc2c1` the Potency was “inactive”.
